# Reference: US20250214977A1, “STAT6 INHIBITORS AND USES THEREOF” (Kymera Therapeutics, Inc., priority 2024, published 2025)
# Biological target: T1, biotinylated truncated STAT6 (123-632)-avi (Homo sapiens, UniProt P42226)
# T1 sequence (P42226 123-632 limits assumed): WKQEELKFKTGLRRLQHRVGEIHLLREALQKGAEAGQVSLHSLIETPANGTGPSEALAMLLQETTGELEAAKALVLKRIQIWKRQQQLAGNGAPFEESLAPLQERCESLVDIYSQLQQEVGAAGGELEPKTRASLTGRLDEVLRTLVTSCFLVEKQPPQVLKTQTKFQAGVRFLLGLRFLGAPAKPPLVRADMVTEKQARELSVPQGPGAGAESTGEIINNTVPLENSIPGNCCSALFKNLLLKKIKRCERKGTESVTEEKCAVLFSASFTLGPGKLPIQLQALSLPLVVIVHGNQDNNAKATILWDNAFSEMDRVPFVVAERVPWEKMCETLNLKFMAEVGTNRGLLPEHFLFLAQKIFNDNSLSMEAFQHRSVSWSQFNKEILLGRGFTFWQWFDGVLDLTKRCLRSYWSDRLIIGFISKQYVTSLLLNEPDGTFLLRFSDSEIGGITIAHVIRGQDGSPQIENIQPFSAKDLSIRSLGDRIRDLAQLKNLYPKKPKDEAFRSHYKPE
# Experiment: Homogenous Time-Resolved Fluorescence (HTRF) binding assay
# Conditions: 0.15 nM biotinylated truncated STAT6 (123-632)-avi, 20 nM fluorescein-labeled probe, 30 minutes at room temperature
row,Compound,IC50 [nM]
1,(1R)-3-[4-(4-ethyl-3-pyridyl)-7-fluoro-2-[4-(5-fluoro-3-methoxy-2-pyridyl)piperazine-1-carbonyl]-1H-indol-6-yl]cyclohex-3-ene-1-carboxylic acid [Example I-810],< 100
2,(1S)-3-[4-(4-ethyl-3-pyridyl)-7-fluoro-2-[4-(5-fluoro-3-methoxy-2-pyridyl)piperazine-1-carbonyl]-1H-indol-6-yl]cyclohex-3-ene-1-carboxylic acid [Example I-809],< 100
3,"(R)-1-(3-(7-fluoro-2-(4-(5-fluoro-3-methoxypyridin-2-yl)piperazine-1-carbonyl)-4-(1-methylpyrrolidin-3-yl)-1H-indol-6-yl)-5,6-dihydropyridin-1(2H)-yl)-3-(1H-1,2,3-triazol-1-yl)propan-1-one [Example I-812]",< 100
4,"(R)-5-(1-(2-formyl-1,2,3,4-tetrahydroisoquinoline-3-carbonyl)-1,2,5,6-tetrahydropyridin-3-yl)-7-(2-methoxyphenyl)-N,N-dimethylbenzofuran-2-carboxamide [Example I-804]",< 100

# Same assay, conditions: 0.15 nM biotinylated truncated STAT6 (123-632)-avi, 20 nM fluorescein-labeled probe, 30 minutes room temperature
row,Compound,IC50 [nM]
1,COc1ccccc1-c1cc(C2=CCCN(C(=O)CCn3ccnn3)C2)c(F)c2[nH]c(C(=O)N(CCO)C[C@@H](C)O)cc12 [Example I-1620],1000 to 10000
2,COc1ccccc1-c1cc(C2=CCCN(C(=O)CCn3ccnn3)C2)c(F)c2[nH]c(C(=O)N(C)CC3CC3)cc12 [Example I-1621],< 100
3,COc1ccccc1-c1cc(C2=CCCN(C(=O)CCn3ccnn3)C2)c(F)c2[nH]c(C(=O)N3CCCCC3)cc12 [Example I-1624],< 100
4,COc1ccc(S(C)(=O)=O)cc1-c1cc(C2=CCCN(C(=O)CCn3ccnn3)C2)c(F)c2[nH]c(C(=O)N(C)C)cc12 [Example I-1626],< 100
5,CCC(O)CN1CCN(C(=O)c2cc3ccc(C4=CCCN(C(=O)CCn5ccnn5)C4)c(F)c3[nH]2)CC1 (stereo not shown) [Example I-1628],1000 to 10000
6,Cc1c(C2=CCCN(C(=O)CCn3ccnn3)C2)cc2[nH]c(C(=O)N(C)C)cc2c1C [Example I-1630],< 100
7,CN(C)C(=O)c1cc2c(-c3cc[nH]c(=O)c3)cc(C3=CCCN(C(=O)CCn4ccnn4)C3)c(F)c2[nH]1 [Example I-1631],< 100
8,COc1cccc(C)c1-c1cc(C2=CCCN(C(=O)CCn3ccnn3)C2)c(F)c2[nH]c(C(=O)N(C)C)cc12 [Example I-1632],< 100
9,CN(C[C@H](O)COc1cccc2ccccc12)C(=O)c1cc2ccc(C3=CCCN(C(=O)CCn4ccnn4)C3)c(F)c2[nH]1 [Example I-1633],1000 to 10000
10,O=C(CCn1ccnn1)N1CCC=C(c2ccc3cc(C(=O)N4CCN(CCCF)CC4)[nH]c3c2F)C1 [Example I-1634],100 to 1000
11,O=C(CCn1ccnn1)N1CCC=C(c2ccc3cc(C(=O)N(CCO)CCc4ccccc4)[nH]c3c2F)C1 [Example I-1635],1000 to 10000
12,CCn1ncc(CN(CCO)C(=O)c2cc3ccc(C4=CCCN(C(=O)CCn5ccnn5)C4)c(F)c3[nH]2)c1C [Example I-1636],100 to 1000
13,CCOc1cnccc1-c1cc(C2=CCCN(C(=O)CCn3ccnn3)C2)c(F)c2[nH]c(C(=O)N(C)C)cc12 [Example I-1638],< 100
14,CN(C)C(=O)c1cc2c(N3CCOCC3)cc(C3=CCCN(C(=O)CCn4ccnn4)C3)cc2[nH]1 [Example I-1639],< 100
15,COc1ccc(OC)c(-c2cc(C3=CCCN(C(=O)CCn4ccnn4)C3)c(F)c3[nH]c(C(=O)N(C)C)cc23)c1 [Example I-1640],< 100
16,COc1ccc(CO)cc1-c1cc(C2=CCCN(C(=O)CCn3ccnn3)C2)c(F)c2[nH]c(C(=O)N(C)C)cc12 [Example I-1641],< 100
17,COc1cccc(-c2cc(C3=CCCN(C(=O)CCn4ccnn4)C3)c(F)c3[nH]c(C(=O)N(C)C)cc23)c1 [Example I-1642],< 100
18,COc1cccnc1-c1cc(C2=CCCN(C(=O)CCn3ccnn3)C2)c(F)c2[nH]c(C(=O)N(C)C)cc12 [Example I-1643],< 100
19,CN(C)C(=O)c1cc2c(-c3ccccc3)cc(C3=CCCN(C(=O)CCn4ccnn4)C3)c(F)c2[nH]1 [Example I-1645],< 100
20,COc1cccc(C)c1-c1cc(C2=CCCN(C(=O)CCn3ccnn3)C2)cc2cc(C(=O)N(C)C)oc12 [Example I-1646],< 100
21,COc1cccnc1-c1cc(C2=CCCN(C(=O)CCn3ccnn3)C2)cc2[nH]c(C(=O)N(C)C)cc12 [Example I-1647],< 100
22,CN(C)C(=O)c1cc2cc(C3=CCCN(C(=O)C(Cn4ccnn4)c4ccn(C)n4)C3)ccc2o1 (stereo not shown) [Example I-1648],1000 to 10000
23,COc1ccccc1-c1cc(C2=CCCN(C(=O)C(C)C)C2)c(F)c2[nH]c(C(=O)N3CCCCC3)cc12 [Example I-1651],1000 to 10000
24,O=C(CCn1ccnn1)N1CCC=C(c2ccc3cc(C(=O)N4CCN(CCCO)CC4)[nH]c3c2F)C1 [Example I-1652],1000 to 10000
25,COc1cnccc1-c1cc(C2=CCCN(C(=O)CCn3ccnn3)C2)c(F)c2[nH]c(C(=O)N(C)C)cc12 [Example I-1653],< 100
26,COc1ccc(C(F)F)cc1-c1cc(C2=CCCN(C(=O)CCn3ccnn3)C2)cc2[nH]c(C(=O)N(C)C)cc12 [Example I-1654],< 100
27,CN(C)C(=O)c1cc2c(Oc3ccccc3)cc(C3=CCCN(C(=O)CCn4ccnn4)C3)cc2[nH]1 [Example I-1655],< 100

row,Compound,IC50 [nM]
1,CN(C)C(=O)c1cn2c(F)c(C3=CCCN(C(=O)CCn4ccnn4)C3)ccc2n1 [Example I-1656],100 to 1000
2,COc1cc2[nH]cnc2cc1-c1cc(C2=CCCN(C(=O)CCn3ccnn3)C2)cc2[nH]c(C(=O)N(C)C)cc12 [Example I-1657],< 100
3,COc1cccc(C)c1-c1cc(C2=CCCN(C(C)=O)C2)c(F)c2[nH]c(C(=O)N(C)C)cc12 [Example I-1658],100 to 1000
4,Cc1cccc(C)c1-c1cc(C2=CCCN(C(=O)CCn3ccnn3)C2)cc2cc(C(=O)N(C)C)oc12 [Example I-1659],100 to 1000
5,O=C(NCCCCCCO)c1cc2ccc(C3=CCCN(C(=O)CCn4ccnn4)C3)c(F)c2[nH]1 [Example I-1660],1000 to 10000
6,N#Cc1cccc(OCCNC(=O)c2cc3ccc(C4=CCCN(C(=O)CCn5ccnn5)C4)c(F)c3[nH]2)c1 [Example I-1661],1000 to 10000
7,O=C(NCCCCc1ccc(Cl)cc1)c1cc2ccc(C3=CCCN(C(=O)CCn4ccnn4)C3)c(F)c2[nH]1 [Example I-1662],1000 to 10000
8,CN(C)C(=O)c1cc2cc(C3=CCCN(C(=O)C[C@H]4Oc5ccccc5NC4=O)C3)ccc2o1 [Example I-1663],1000 to 10000
9,COc1ccc(C(F)(F)F)cc1-c1cc(C2=CCCN(C(=O)CCn3ccnn3)C2)cc2[nH]c(C(=O)N(C)C)cc12 [Example I-1664],< 100
10,CN(C)C(=O)c1cc2c(-c3ccccn3)cc(C3=CCCN(C(=O)CCn4ccnn4)C3)cc2[nH]1 [Example I-1665],< 100
11,COc1cccc(C)c1-c1cc(C2=CCCN(C(=O)CCn3ccnn3)C2)cc2[nH]c(C(=O)N(C)C)cc12 [Example I-1666],< 100
12,CN(C)C(=O)c1cc2c(-c3ccccc3Cl)cc(C3=CCCN(C(=O)CCn4ccnn4)C3)c(F)c2[nH]1 [Example I-1668],< 100
13,COc1ccccc1-c1cc(C2=CCCN(C(=O)CCn3ccnn3)C2)c(F)c2[nH]c(C(=O)N(C)C)cc12 [Example I-1669],< 100
14,CN(C)C(=O)c1cc2c(-c3cc(C(F)(F)F)ccc3Cl)cc(C3=CCCN(C(=O)CCn4ccnn4)C3)cc2[nH]1 [Example I-1670],100 to 1000
15,COc1cccc(Cl)c1-c1cc(C2=CCCN(C(=O)CCn3ccnn3)C2)cc2[nH]c(C(=O)N(C)C)cc12 [Example I-1671],< 100
16,COc1ccc(C(C)C)cc1-c1cc(C2=CCCN(C(=O)CCn3ccnn3)C2)cc2[nH]c(C(=O)N(C)C)cc12 [Example I-1672],< 100
17,CN(C)C(=O)c1ccc2[nH]c(C3=CCCN(C(=O)CCn4ccnn4)C3)cc2c1 [Example I-1673],100 to 1000
18,CN(C)C(=O)c1cc2ccc(C3=CCCN(C(=O)Cc4c[nH]nn4)C3)cc2[nH]1 [Example I-1674],10000 to 100000
19,CN(C)C(=O)c1cc2cc(C3=CCCN(C(=O)CCn4ccnn4)C3)cc(-c3ccccc3)c2o1 [Example I-1675],< 100
20,CN(C)C(=O)c1cc2c(-c3cccnc3)cc(C3=CCCN(C(=O)CCn4ccnn4)C3)cc2[nH]1 [Example I-1677],< 100
21,CN(C)C(=O)c1cc2c(-c3ccccc3)cc(C3=CCCN(C(=O)CCn4ccnn4)C3)cc2[nH]1 [Example I-1678],< 100
22,CN(C)C(=O)c1cc2c(-c3ccccc3Cl)cc(C3=CCCN(C(=O)CCn4ccnn4)C3)cc2[nH]1 [Example I-1679],< 100
23,O=C(CCn1ccnn1)N1CCC=C(c2ccc3cc(-c4ccccn4)oc3c2)C1 [Example I-1681],1000 to 10000
24,O=C(CCn1ccnn1)N1CCC=C(c2ccc3oc(-n4ccccc4=O)cc3c2)C1 [Example I-1682],100 to 1000
25,CN(C)C(=O)c1ccc2oc(C3=CCCN(C(=O)CCn4ccnn4)C3)cc2c1 [Example I-1683],1000 to 10000
26,CN(C)C(=O)c1cc2ccc(C3=CCCN(C(=O)C4CCC(C(=O)N5CCC=C(c6ccc7cc(C(=O)N(C)C)[nH]c7c6)C5)C4)C3)cc2[nH]1 (stereo not shown) [Example I-1684],1000 to 10000
27,CN(C)C(=O)c1cc2ccc(C3=CCCN(C(=O)CCn4ccnn4)C3)cc2[nH]1 [Example I-1685],< 100
